The chains are these.
B1: GGAGGCA (DNA:RNA)
RNA: GGGAGACCGGAAUUCAGAUUGUCCGGAGGCAUUAAAUCCCGUCGUAGCCACCA
DNA 1: CAATCTGAATTCCGGTCTCCC
DNA 2: TGGTGGCTACGACGGGATT
B2: UUGAGAU (DNA:RNA)
RNA: B1 RNA with G25U, G26U, A27G, G28A, C30A, A31U
DNA 1: CAATCTGAATTCCGGTCTCCC
DNA 2: TGGTGGCTACGACGGGATT
B3: CAACCCC (DNA:RNA)
RNA: B1 RNA with G25C, G26A, G28C, G29C, A31C
DNA 1: CAATCTGAATTCCGGTCTCCC
DNA 2: TGGTGGCTACGACGGGATT
B4: GACCAGG (DNA:RNA)
RNA: B1 RNA with G26A, A27C, G28C, G29A, C30G, A31G
DNA 1: CAATCTGAATTCCGGTCTCCC
DNA 2: TGGTGGCTACGACGGGATT
B5: UUUUCCG (DNA:RNA)
RNA: B1 RNA with G25U, G26U, A27U, G28U, G29C, A31G
DNA 1: CAATCTGAATTCCGGTCTCCC
DNA 2: TGGTGGCTACGACGGGATT
B6: GCGAGGU (DNA:RNA)
RNA: B1 RNA with G26C, A27G, G28A, C30G, A31U
DNA 1: CAATCTGAATTCCGGTCTCCC
DNA 2: TGGTGGCTACGACGGGATT
B7: AUAAACG (DNA:RNA)
RNA: B1 RNA with G25A, G26U, G28A, G29A, A31G
DNA 1: CAATCTGAATTCCGGTCTCCC
DNA 2: TGGTGGCTACGACGGGATT
B8: CGUUAAA (DNA:RNA)
RNA: B1 RNA with G25C, A27U, G28U, G29A, C30A
DNA 1: CAATCTGAATTCCGGTCTCCC
DNA 2: TGGTGGCTACGACGGGATT
B9: CACCAUU (DNA:RNA)
RNA: GGGAGACCGGAAUUCAGAUUGUCCCACCAUUUUAAAUCCCGUCGUAGCCACCA
DNA 1: CAATCTGAATTCCGGTCTCCC
DNA 2: TGGTGGCTACGACGGGATT
B10: AUGAACG (DNA:RNA)
RNA: B9 RNA with C25A, A26U, C27G, C28A, U30C, U31G
DNA 1: CAATCTGAATTCCGGTCTCCC
DNA 2: TGGTGGCTACGACGGGATT
B11: GUGGGGU (DNA:RNA)
RNA: B1 RNA with G26U, A27G, C30G, A31U
DNA 1: CAATCTGAATTCCGGTCTCCC
DNA 2: TGGTGGCTACGACGGGATT
B12: GCUAAUG (DNA:RNA)
RNA: B9 RNA with C25G, A26C, C27U, C28A, U31G
DNA 1: CAATCTGAATTCCGGTCTCCC
DNA 2: TGGTGGCTACGACGGGATT
B13: GUAAGGU (DNA:RNA)
RNA: B1 RNA with G26U, G28A, C30G, A31U
DNA 1: CAATCTGAATTCCGGTCTCCC
DNA 2: TGGTGGCTACGACGGGATT
B14: UAAACGU (DNA:RNA)
RNA: B9 RNA with C25U, C27A, C28A, A29C, U30G
DNA 1: CAATCTGAATTCCGGTCTCCC
DNA 2: TGGTGGCTACGACGGGATT
B15: AUAAAAC (DNA:RNA)
RNA: B9 RNA with C25A, A26U, C27A, C28A, U30A, U31C
DNA 1: CAATCTGAATTCCGGTCTCCC
DNA 2: TGGTGGCTACGACGGGATT
B16: AAAUUGA (DNA:RNA)
RNA: B1 RNA with G25A, G26A, G28U, G29U, C30G
DNA 1: CAATCTGAATTCCGGTCTCCC
DNA 2: TGGTGGCTACGACGGGATT
B17: CAUAAAG (DNA:RNA)
RNA: B9 RNA with C27U, C28A, U30A, U31G
DNA 1: CAATCTGAATTCCGGTCTCCC
DNA 2: TGGTGGCTACGACGGGATT
B18: CGGCUCG (DNA:RNA)
RNA: B9 RNA with A26G, C27G, A29U, U30C, U31G
DNA 1: CAATCTGAATTCCGGTCTCCC
DNA 2: TGGTGGCTACGACGGGATT
B19: UGUGCCG (DNA:RNA)
RNA: B1 RNA with G25U, A27U, G29C, A31G
DNA 1: CAATCTGAATTCCGGTCTCCC
DNA 2: TGGTGGCTACGACGGGATT
B20: GAGCCGG (DNA:RNA)
RNA: B9 RNA with C25G, C27G, A29C, U30G, U31G
DNA 1: CAATCTGAATTCCGGTCTCCC
DNA 2: TGGTGGCTACGACGGGATT
B21: GCCGUGA (DNA:RNA)
RNA: B1 RNA with G26C, A27C, G29U, C30G
DNA 1: CAATCTGAATTCCGGTCTCCC
DNA 2: TGGTGGCTACGACGGGATT
B22: AUCACCG (DNA:RNA)
RNA: B9 RNA with C25A, A26U, C28A, A29C, U30C, U31G
DNA 1: CAATCTGAATTCCGGTCTCCC
DNA 2: TGGTGGCTACGACGGGATT
B23: GCACGGA (DNA:RNA)
RNA: B1 RNA with G26C, G28C, C30G
DNA 1: CAATCTGAATTCCGGTCTCCC
DNA 2: TGGTGGCTACGACGGGATT
B24: GAGCACU (DNA:RNA)
RNA: B9 RNA with C25G, C27G, U30C
DNA 1: CAATCTGAATTCCGGTCTCCC
DNA 2: TGGTGGCTACGACGGGATT
B25: CAGGCAG (DNA:RNA)
RNA: B9 RNA with C27G, C28G, A29C, U30A, U31G
DNA 1: CAATCTGAATTCCGGTCTCCC
DNA 2: TGGTGGCTACGACGGGATT
B26: CCUUUUG (DNA:RNA)
RNA: B9 RNA with A26C, C27U, C28U, A29U, U31G
DNA 1: CAATCTGAATTCCGGTCTCCC
DNA 2: TGGTGGCTACGACGGGATT
B27: GGACACA (DNA:RNA)
RNA: B1 RNA with G28C, G29A
DNA 1: CAATCTGAATTCCGGTCTCCC
DNA 2: TGGTGGCTACGACGGGATT
B28: UCCAGUC (DNA:RNA)
RNA: B9 RNA with C25U, A26C, C28A, A29G, U31C
DNA 1: CAATCTGAATTCCGGTCTCCC
DNA 2: TGGTGGCTACGACGGGATT
B29: UCACUGG (DNA:RNA)
RNA: B9 RNA with C25U, A26C, C27A, A29U, U30G, U31G
DNA 1: CAATCTGAATTCCGGTCTCCC
DNA 2: TGGTGGCTACGACGGGATT
B30: AAAAUGA (DNA:RNA)
RNA: B1 RNA with G25A, G26A, G28A, G29U, C30G
DNA 1: CAATCTGAATTCCGGTCTCCC
DNA 2: TGGTGGCTACGACGGGATT
B31: UGCAUAG (DNA:RNA)
RNA: B9 RNA with C25U, A26G, C28A, A29U, U30A, U31G
DNA 1: CAATCTGAATTCCGGTCTCCC
DNA 2: TGGTGGCTACGACGGGATT

Experimental findings from PMC9911399, “Two distinct binding modes provide the RNA-binding protein RbFox with extraordinary sequence specificity” are described below.

Where a chain is given by its changes, count along the chain named. The list shows a part of the results.

This assay has as its target T1, RBFOX1 RRM (Homo sapiens, UniProt Q9NWB1 109-208).
T1 sequence: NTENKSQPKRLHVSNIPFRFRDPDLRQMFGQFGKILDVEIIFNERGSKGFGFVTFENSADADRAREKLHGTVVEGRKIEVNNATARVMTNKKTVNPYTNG
In words: EMSA; HiTS-Eq, 1 nM pool, 10 min; buffer printed only for the single-RNA assays: 10 mM Tris pH 7.5, 150 mM NaCl, 3.4 mM EDTA, 0.001% NP-40, 30 C. To be noted: tags: His6 N-terminal (pET28a); label: 5' 32P. In outline:
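Purified RbFox RRM (wild type or mutant) was equilibrated for 10 min in 50 µL with 1 nM of a 5′-radiolabelled pool of RNA with 7 randomized nucleotides, its flanks annealed to DNA oligonucleotides, across increasing protein concentrations. Free RNA was separated by 8% native PAGE, excised, reverse-transcribed, PCR-barcoded and sequenced on an Illumina HiSeq 2500. Relative association constants came from read-count changes of each variant against the control reaction, normalised to the cognate motif.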
(Mobility shift assays separate free from complexed probe on a gel.)
As to B1, the binding signal is 0.0162 KA relative to UGCAUGU.

For B2, the binding signal is 0.019 KA relative to UGCAUGU.

Take B3: the binding signal is 0.000951 KA relative to UGCAUGU.

Consider B4, for which the binding signal is 0.013 KA relative to UGCAUGU.

As for B5, the binding signal is 0.0112 KA relative to UGCAUGU.

B6: the binding signal was 0.0132 KA relative to UGCAUGU.

With B7, the binding signal is 0.000823 KA relative to UGCAUGU.

With B8, the binding signal is 0.00307 KA relative to UGCAUGU.

B9: the binding signal was 0.000381 KA relative to UGCAUGU.

As to B10, the binding signal is 0.00874 KA relative to UGCAUGU.

B11: the binding signal is 0.014 KA relative to UGCAUGU.

In the case of B12, the binding signal is 0.0129 KA relative to UGCAUGU.

On to B13, for which the binding signal is 0.00752 KA relative to UGCAUGU.

Take B14: the binding signal is 0.00551 KA relative to UGCAUGU.

For B15, the binding signal is 0.000263 KA relative to UGCAUGU.

Consider B16, for which the binding signal was 0.00544 KA relative to UGCAUGU.

Take B17: the binding signal was 0.00409 KA relative to UGCAUGU.

For the molecule B18, the binding signal is 0.0112 KA relative to UGCAUGU.

As for B19, the binding signal is 0.0199 KA relative to UGCAUGU.

For the molecule B20, the binding signal is 0.00449 KA relative to UGCAUGU.

In the case of B21, the binding signal is 0.0146 KA relative to UGCAUGU.

In the case of B22, the binding signal was 0.000671 KA relative to UGCAUGU.

In the case of B23, the binding signal is 0.0162 KA relative to UGCAUGU.

As for B24, the binding signal is 0.0122 KA relative to UGCAUGU.

With B25, the binding signal is 0.0139 KA relative to UGCAUGU.

For the molecule B26, the binding signal is 0.0132 KA relative to UGCAUGU.

For B27, the binding signal is 0.0131 KA relative to UGCAUGU.

With B28, the binding signal is 0.00851 KA relative to UGCAUGU.

On to B29, for which the binding signal is 0.0143 KA relative to UGCAUGU.

On to B30, for which the binding signal is 0.00113 KA relative to UGCAUGU.

For B31, the binding signal was 0.021 KA relative to UGCAUGU.
